PubChem BioAssay AID1768 (National Center for Advancing Translational Sciences (NCATS), 2009)
Hit rate of the full screen: of about 270,000 compounds, about 620 (0.23%) were called active. The inconclusive results got no clear call from the source; some entries with a clear call stand among them for comparison. The call rests on the fitted dose curve; in most records, active means well fitted inhibition curve with a large enough effect in the polarisation, with a control signal flat (not every such curve was filed as active); inconclusive means small, poorly fitted or top-dose-only effect, or effect the other way, or a change in a side signal; inactive means no such curve, though single readings can be large or run the other way; the % refers to the polarisation. Potencies of inconclusive entries are doubtful fits and often do not repeat. “Side channel” marks fits to a control or component signal instead of the main read-out.

What follows are molecules tested against Menin (Homo sapiens) (UniProt O00255) (assay: qHTS Assay for Inhibitors Targeting the Menin-MLL Interaction in MLL Related Leukemias: Competition With Texas Red Labeled MLL-derived Mutant Peptide). Details: fluorescence polarization; series mostly up to 61.6 µM.
Potency means the concentration at half of the fitted maximal effect; tags describe the fitted curve by direction and shape or compound fluorescence and quenching.

UniProt O00255, sequence (O00255 whole entry, looked up): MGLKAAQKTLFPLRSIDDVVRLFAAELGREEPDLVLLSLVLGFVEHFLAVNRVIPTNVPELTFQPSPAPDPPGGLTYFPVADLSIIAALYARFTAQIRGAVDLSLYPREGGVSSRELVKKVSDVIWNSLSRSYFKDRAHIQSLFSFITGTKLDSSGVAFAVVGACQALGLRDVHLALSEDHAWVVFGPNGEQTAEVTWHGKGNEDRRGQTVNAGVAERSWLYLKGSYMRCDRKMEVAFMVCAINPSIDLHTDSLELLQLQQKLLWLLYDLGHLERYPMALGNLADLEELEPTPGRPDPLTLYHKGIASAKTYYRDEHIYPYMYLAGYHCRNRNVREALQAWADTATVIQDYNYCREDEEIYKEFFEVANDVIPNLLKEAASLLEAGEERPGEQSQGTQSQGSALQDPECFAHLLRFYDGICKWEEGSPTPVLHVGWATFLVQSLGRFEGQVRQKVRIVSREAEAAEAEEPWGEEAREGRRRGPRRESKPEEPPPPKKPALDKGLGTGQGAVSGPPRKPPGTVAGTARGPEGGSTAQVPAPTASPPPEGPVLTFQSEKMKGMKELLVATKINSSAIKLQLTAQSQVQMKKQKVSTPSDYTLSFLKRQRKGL

Compound | Potency
COc1ccccc1-n1c(SCC(=O)O)nc2c(sc(=S)n2-c2ccc(C)c(C)c2)c1=O | inconclusive: 17.8 µM [quencher, side channel, partial curve]
Fc1ccccc1CNC(=S)Nc1cccc(C(F)(F)F)c1 | inconclusive: 14.1 µM [quencher, side channel, partial curve]
Cc1ccc(-c2c(C(=O)N/N=C/c3ccsc3)nnn2-c2nonc2N)cc1 | inconclusive: 15.8 µM [quencher, side channel, partial curve]
CC(=O)O[C@H]1CC2(C)[C@@H](C[C@@H](O)[C@H]3[C@@]4(C)CC[C@@H](O)[C@@H](C)[C@@H]4CC[C@@]32C)C1=C(CCC=C(C)C)C(=O)O (stereo not given in full) | inconclusive: 14.1 µM [fluorescent, side channel, partial curve, poor fit]
COC(=O)c1ccc(C2C(Oc3ccccc3C)C(=O)N2CCc2ccc(OC)c(OC)c2)cc1 (stereo not given) | inconclusive: 2.82 µM [inhibitor, partial curve]
COc1ccc(OCC(=O)Nc2ccccc2O)cc1 | inconclusive: 22.4 µM [quencher, side channel, partial curve]
COc1cccc(OC)c1OCCNCC1CSc2ccccc2O1 (stereo not given) | inconclusive: 11.2 µM [fluorescent, side channel, partial curve]
O=C(NC(=S)Nc1ccc2oc(=O)ccc2c1)c1cccc(F)c1 | inconclusive: 12.6 µM [inhibitor, single point]
CC(C)Oc1cccc(C(=O)C2CCCN(C(=O)c3ccoc3)C2)c1 (stereo not given) | inconclusive: 17.8 µM [fluorescent, side channel, partial curve]
CC12CCC=CC1C(c1ccc(F)c(/C=C/c3ccccc3)c1)N(Cc1ccccc1)C2=O (stereo not given) | inactive
Nc1nc(-c2cccnc2)nn1C(=O)c1ccco1 | inconclusive: 10 µM [inhibitor, partial curve]
CCCCN(C)CCN1C(=O)C2C(C(=O)Nc3ccc(C)cc3)C3C=CC2(O3)C1C(=O)NC1CCCCC1 (stereo not given) | inconclusive: 39.8 µM [inhibitor, single point]
C=CCn1c(COc2cccc3ccc(C)nc23)nnc1SCC(=O)OC | inactive
CC(=O)N(Cc1cccs1)Cc1cc2cc(C)c(C)cc2nc1Cl | inconclusive: 39.8 µM [inhibitor, single point]
COC(=O)CN1C(=S)N(c2ccc(OC)cc2)C(=O)/C1=C/c1ccc(OC)cc1 | inconclusive: 20 µM [fluorescent, side channel, single point]
